Assay results taken from the supplement of paper PMC10338343.
± gives the standard deviation. The full ranking holds about 3,700 sequences; the median of “pre-steady-state target cleavage rate” is about 0.02, and the highest 2% start at about 0.23. Only a part is listed here, and it is no random draw.
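Note: 1 nM active piRISC with 0.1 nM target library at 33 °C single turnover.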

What follows are sequences tested on MILI (PIWIL2) piRISC loaded with Kctd7 piRNA (26 nt) (assay: pre-steady-state target cleavage rate (min^-1); MIWI and MILI are mouse PIWI proteins and EfPiwi is from a freshwater sponge; tags in brackets are library labels; higher = faster piRNA-guided slicing of the target). Settings: guide: Kctd7 piRNA 5'p-UGUUAAUCUCUCAGAGAAGGUGACAG; auxiliary factor: 500 nM mouse GTSF1.
Procedure, shortened: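 The pre-steady-state cleavage rate was calculated from a burst-and-steady-state fit. Data came from Cleave-'n-Seq, in which […] transcribed, DNA-blocked target RNA library was mixed with 1 nM active affinity-purified piRISC carrying one synthetic guide, with or without 500 nM GTSF1 partner protein, in HEPES–potassium acetate buffer at 33 °C for 0–8 or 0–960 min. Uncleaved targets were sequenced and normalised to depth and to weakly complementary targets, three trials were pooled, and k3 was capped at 0.0001 min^-1.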
In the case of UAGUCUGUCAGCUUCUCAGAGAGAUUAACA, the “pre-steady-state target cleavage rate” value is reported as 0.119 ± 0.0095. With UAGUGACACACCUUCUGUGAGAGAUAAACA the “pre-steady-state target cleavage rate” value was 0.087 ± 0.041. With UAGUGACUCACCUUACUCUGAGAGAUUAACA the “pre-steady-state target cleavage rate” value was 0.0622 ± 0.007. UAGUGACAGUCCUAUCUCUGAGAGAUUAACA was tested, and the “pre-steady-state target cleavage rate” value was 0.0434 ± 0.0048. For UAGUGACAGACGAUCUCUGAGAGAUUAACA, the “pre-steady-state target cleavage rate” value was 0.0147 ± 0.0042. For UAGUGACAGACCUUCACUGUGAGAUUAACA, the “pre-steady-state target cleavage rate” value was 0.0374 ± 0.0089. For UAGUGUGUCACCUUCUUGAGAGAUUAACA, the “pre-steady-state target cleavage rate” value was 0.0331 ± 0.014. In the case of UAGUGACACACCUUCUUGAGAGAUUAACA, the “pre-steady-state target cleavage rate” value is reported as 0.0144 ± 0.0065. In the case of UAGUGACUCACCUUCUCAGAGACAUUAACA, the “pre-steady-state target cleavage rate” value is reported as 0.0723 ± 0.0081. In the case of UAGUGACAGUGGUUCUCUGAGAGAAAUACA, the “pre-steady-state target cleavage rate” value is reported as less than 0.0001. In the case of UAGUGACAGUGCUACUCUGAGAGAUUAACA, the “pre-steady-state target cleavage rate” value is reported as 0.00794 ± 0.0011. UAGUCUGUCACCUUCUCUCAGAGAUUUACA was tested, and the “pre-steady-state target cleavage rate” value was 0.0575 ± 0.014. UAGUCUGUCACCUUCCUCUGAGAGAUUAACA was tested, and the “pre-steady-state target cleavage rate” value was 0.178 ± 0.012. For UAGUGACAGACCUUCUCUGAGGGAUUAACA, the “pre-steady-state target cleavage rate” value was 0.0385 ± 0.013. In the case of UAGUGUGUCACCUCCUCUGAGAGAUUAACA, the “pre-steady-state target cleavage rate” value is reported as 0.189 ± 0.014. UAGUGACAGUGCUUCGCUGAGAGAUUAACA was tested, and the “pre-steady-state target cleavage rate” value was 0.0288 ± 0.0063. UAGUGACAGUGCUUCUCUGAGAGAUUUAACA was tested, and the “pre-steady-state target cleavage rate” value was 0.0519 ± 0.0095. For UAGUGACAGUGGUUCGCUGAGAGAUUAACA, the “pre-steady-state target cleavage rate” value was 0.00402 ± 0.002. With UAGUGACACACCUACACUGAGAGAUUAACA the “pre-steady-state target cleavage rate” value was 0.0756 ± 0.011. With UAGUCUGUGUCCUUCUCUGAGAGAUUAUGA the “pre-steady-state target cleavage rate” value was 0.00809 ± 0.0036. In the case of UAGUCUGUCACCUUCUCUCAGAGUUUAACA, the “pre-steady-state target cleavage rate” value is reported as 0.0257 ± 0.008. UAGUGACACACCUUCUCUGAGUAGAUUAACA was tested, and the “pre-steady-state target cleavage rate” value was 0.00545 ± 0.0038. UAGUGACAGACCUUCUCUGAGAAGAUUAACA was tested, and the “pre-steady-state target cleavage rate” value was 0.0136 ± 0.0056. With UAGUGACAGUCCUUCUCUGAGAGAUUAGACA the “pre-steady-state target cleavage rate” value was 0.0313 ± 0.011. In the case of UAGUGACAGACCUUCUCUGAGAGAGUAACA, the “pre-steady-state target cleavage rate” value is reported as 0.0379 ± 0.015. With UAGUCUGUCACCUUCUCUGAGUGAUUAACA the “pre-steady-state target cleavage rate” value was 0.00807 ± 0.0044. For UAGUGAGUCACCUUCACUGAGAGAUUAACA, the “pre-steady-state target cleavage rate” value was 0.191 ± 0.014. UAGUGACAGUGGAAGAGACUCAGAAUAACA was tested, and the “pre-steady-state target cleavage rate” value was less than 0.0001. For UAGUCUGUCUCCUUCUCUGACAGAUUAACA, the “pre-steady-state target cleavage rate” value was 0.0107 ± 0.0025. With UAGUGACAGACCUACUCUGAGAGAUUAAGA the “pre-steady-state target cleavage rate” value was 0.0116 ± 0.0044. In the case of UAGUCUGUCACCUUCUCUCAGAGAAUAACA, the “pre-steady-state target cleavage rate” value is reported as 0.00547 ± 0.0042. UAGUGUGUCACCUUGUCUGAGACAUUAACA was tested, and the “pre-steady-state target cleavage rate” value was 0.0447 ± 0.013. UAGUGAGUCUCCUUCUCUGAGAGAUUAAGA was tested, and the “pre-steady-state target cleavage rate” value was 0.0177 ± 0.0071. In the case of UAGUGUGUCACCUUCACUGAGAGAUUAUGA, the “pre-steady-state target cleavage rate” value is reported as 0.0206 ± 0.012. In the case of UAGUGACUCACCUUCUCUCAGAGAUUAAGA, the “pre-steady-state target cleavage rate” value is reported as 0.00948 ± 0.0055. For UAGUGACACACCUAGUCUGAGAGAUUAACA, the “pre-steady-state target cleavage rate” value was 0.0588 ± 0.0073. UAGUGACAGUGCUUCUCUGAGAGAAUAAGA was tested, and the “pre-steady-state target cleavage rate” value was less than 0.0001. UAGUGACAGUGGAACCUCUGAGAGAUUAACA was tested, and the “pre-steady-state target cleavage rate” value was 0.00796 ± 0.0014. For UAGUGACACACCUUCUCUGAGAGAUUAAUA, the “pre-steady-state target cleavage rate” value was 0.183 ± 0.033. With UAGUCUGUCACCUUCUCUGUGAGAUUUACA the “pre-steady-state target cleavage rate” value was 0.0713 ± 0.016. UAGUGACAGUGGAUCUCUGAGACGAUUAACA was tested, and the “pre-steady-state target cleavage rate” value was less than 0.0001. In the case of UAGUGACAGACCUUCUCUGAGAGAUGUAACA, the “pre-steady-state target cleavage rate” value is reported as 0.0877 ± 0.012. In the case of UAGUGAGUCACCAUGUCUGAGAGAUUAACA, the “pre-steady-state target cleavage rate” value is reported as 0.0635 ± 0.011. UAGUGACUCACCUUCUCUGAGACAUUAACA was tested, and the “pre-steady-state target cleavage rate” value was 0.0875 ± 0.012. UAGUGACACACCUUCUGUGACAGAUUAACA was tested, and the “pre-steady-state target cleavage rate” value was 0.0375 ± 0.012. With UAGUGACUCACCUUCUCUGAGAGAUAACA the “pre-steady-state target cleavage rate” value was 0.0122 ± 0.0048. In the case of UAGUGACUCACCUUCUGUGUGAGAUUAACA, the “pre-steady-state target cleavage rate” value is reported as 0.0184 ± 0.0032. With “UAGUGACAGACCUUCUCUGAGAGAUUAACG [g2:g21:cont:t1G]” the “pre-steady-state target cleavage rate” value was 0.0801 ± 0.019. In the case of UAGUGAGUCACCUUCUGUGAGAGAUUAUCA, the “pre-steady-state target cleavage rate” value is reported as 0.0169 ± 0.0072. UAGUGACAGACCUUGUCUGAGAGAUUUACA was tested, and the “pre-steady-state target cleavage rate” value was 0.0122 ± 0.0073. With UAGUGAGUCAGCUUCUCUGAGAGAUUAUCA the “pre-steady-state target cleavage rate” value was 0.0836 ± 0.016. With UAGUCUCACACCUUCUCUGAGAGAUUAUGA the “pre-steady-state target cleavage rate” value was 0.00641 ± 0.0043. For UAGUCUGUGACCUUCUCUGAGAGAUUAUCA, the “pre-steady-state target cleavage rate” value was 0.0656 ± 0.0094. With UAGUGACUCACCAUCACUGAGAGAUUAACA the “pre-steady-state target cleavage rate” value was 0.0863 ± 0.0095. UAGUGACAGUGCUUCUCUGACAGAUUAUCA was tested, and the “pre-steady-state target cleavage rate” value was less than 0.0001. For UAGUGACACACCUUCUCUGUGAGAUUAUCA, the “pre-steady-state target cleavage rate” value was 0.0641 ± 0.018. For UAGUGACAGACCAUCUCUGACAGAUUAACA, the “pre-steady-state target cleavage rate” value was 0.00938 ± 0.004. With UAGUGACAGUGGUUGUCUGAGAGAUUAACA the “pre-steady-state target cleavage rate” value was 0.00764 ± 0.0027. With UAGUGACAGACCAACUCUGAGAGAUUAACA the “pre-steady-state target cleavage rate” value was 0.0108 ± 0.0026. With UAGUCUCUCACCUUCUCUGAGAGAUAAACA the “pre-steady-state target cleavage rate” value was 0.0206 ± 0.0076. In the case of UAGUCUGUCACCUACUCAGAGAGAUUAACA, the “pre-steady-state target cleavage rate” value is reported as 0.103 ± 0.01. With UAGUGACGCACCUUCUCUGAGAGAUUAACA the “pre-steady-state target cleavage rate” value was 0.186 ± 0.015. For UAGUGACUCACCUACUCUGUGAGAUUAACA, the “pre-steady-state target cleavage rate” value was 0.0356 ± 0.0032. For UAGUGACAGUCCGUUCUCUGAGAGAUUAACA, the “pre-steady-state target cleavage rate” value was 0.116 ± 0.0067. With UAGUGACAGUGGUUCUCAGAGAGAUUUACA the “pre-steady-state target cleavage rate” value was less than 0.0001. For UAGUCUGUCACCUUCUCAGUGAGAUUAACA, the “pre-steady-state target cleavage rate” value was 0.0281 ± 0.0036. In the case of UAGUGACAGUGGAAGAGUGAAAGAUUAACA, the “pre-steady-state target cleavage rate” value is reported as less than 0.0001. With UAGUGUGUCACCUUCUCUGAGAGACUAACA the “pre-steady-state target cleavage rate” value was 0.137 ± 0.031. UAGUGACUCACCUUCUCUGAGACAUUAUCA was tested, and the “pre-steady-state target cleavage rate” value was 0.00475 ± 0.0037. For UAGUGUGUCACCAUUCUCUGAGAGAUUAACA, the “pre-steady-state target cleavage rate” value was 0.154 ± 0.012. With UAGUGAGUGUCCUUCUCUGAGAGAUUAUGA the “pre-steady-state target cleavage rate” value was 0.00399 ± 0.0033.
